Source: PubChem BioAssay AID1508623 (National Center for Advancing Translational Sciences (NCATS), 2021)
The campaign covered roughly 48,000 compounds. About 450 (0.94%) were called active. About 19% were inconclusive and are not listed. Calls come from the whole dose curve; as a rule, active = well fitted inhibition curve with a large enough effect; inconclusive = small, poorly fitted or top-dose-only effect; inactive = no such curve, though single readings can be large or run the other way. The list shows a part of the results.

Assay: Primary qHTS for Identification of Small Molecule Inhibitors of Huntingtin Promoter Activity; note: nearly all actives have a fitted effect of over 50% in size
Conditions: HEK293 HTT promoter firefly luciferase reporter (activity 0% = vehicle and -100% = no light), 24 h; series mostly up to 57.5 µM; activity change, negative = inhibition: at the top concentration
How it was run: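 HEK293 luciferase promoter-reporter cells (2,500/well) plated 24 h, then compounds added at up to 57.5 uM final for 24 h at 37 °C. Firefly luminescence by Dual-Glo, normalized to vehicle (0%) and zero RLU (-100%).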

Activity change, negative = inhibition, inactive:
CCOc1ccccc1C(=O)Nc1cccc(-c2nc3ccccc3s2)c1 0.905%, COc1ccc(-c2cn3c(n2)sc2cc(C(=O)NCCc4ccccc4)ccc23)cc1 -11.4%, COc1ccccc1/C=C/c1nc(C#N)c(NCc2ccccc2)o1 -9.44%, Cc1ccc(C)c(NC(=O)c2cnc(N3CCCC3)nc2C)c1 -6.67%, Cc1cc(CS(=O)(=O)c2ccccc2)cc(OCc2ccc(CN3CCC[C@H]3CO)cc2)c1 3.06%, O=C(OCc1cc(=O)n2nc(C3CC3)sc2n1)c1cccc(NC(=O)c2ccccc2Cl)c1 -18.3%, COc1ccc(-n2ncc(C(=O)NCc3cccs3)c2C2CCN(C(=O)OC(C)(C)C)CC2)cc1 -8.83%, Cc1cccc(CNC(=O)C2CCN(c3nn4cc(-c5ccc(F)cc5)nc4s3)CC2)c1 4.37%, O=C(Cc1ccc(Cl)cc1)NC1CC(=O)N(c2ccc3c(c2)OCCO3)C1 (stereo not given) 2.62%, COCCOC(=O)C1=C(C)NC(C)=C(C(=O)OC/C=C/c2ccccc2)C1c1cccc([N+](=O)[O-])c1 (stereo not given) -28.7%, CCOc1ccc(-c2cn3c(n2)sc2cc(C(=O)NC(C)C45CC6CC(CC(C6)C4)C5)ccc23)cc1 (stereo not given) 15.6%, CC1CCN(C(=O)Cn2cc(SCC(=O)NCc3ccccc3)c3ccccc32)CC1 -24.9%, CCOc1ccc(C(c2c(O)cc(C)n(Cc3ccco3)c2=O)N2CCN(C)CC2)cc1 (stereo not given) -7.05%, CCCCNc1ccc(C(=O)OCCOCCOCCOCCOCCOCCOCCOCCOCCOC)cc1 -31.2%, CCc1nnc(NC(=O)c2nc(SCc3cccc(C)c3)ncc2Cl)s1 -17%, O=S(=O)(c1ccccc1)n1nc(-c2ccco2)nc1NCc1ccccc1 37.3%, CCC(Sc1nnc(-c2ccc(F)cc2)c(-c2ccc(F)cc2)n1)C(=O)NC1CCCC1 (stereo not given) -9.98%, CC(Nc1oc(-c2ccc(COc3ccccc3)o2)nc1C#N)c1ccccc1 (stereo not given) -7.78%, COc1cccc(N2CC(NC(=O)/C=C\c3ccccc3)CC2=O)c1 (stereo not given) -10.9%, CCC(=O)N1CCc2cc(S(=O)(=O)CCC(=O)Nc3cc(Cl)ccc3OC)ccc21 0.647%, COc1ccc(CNC(=O)C2CCN(S(=O)(=O)c3cccc(-c4noc(C)n4)c3)CC2)cc1 -16.4%, Cc1cccc(Cn2c(CN3CCC(C(=O)NC(C)C)CC3)cc3ccccc32)c1 1.6%, CCOc1ccc(CNC(=O)c2cc3c(=O)oc4ccc(C)cc4c3s2)cc1 -10.6%, Cc1ccccc1CNCCCSc1nnnn1C -7.83%, Cc1ccc(NC(=O)CSCc2cc(=O)c3ccccc3[nH]2)c(C)c1 -26.9%, COc1ccc(Cn2c(CO)cnc2SCc2ccccc2)cc1 -2.71%, O=C(COCc1cc(-c2ccc(F)cc2)on1)Nc1cccc(C(F)(F)F)c1 -1.64%, COc1ccc(-c2cn3c(n2)sc2cc(C(=O)NCCCN4CCN(C)CC4)ccc23)cc1 -23.8%, Cc1ccc(-n2c(=O)c3c(C)c(C(=O)N(C)C)sc3n(Cc3ccccc3C)c2=O)cc1C 10.3%, Cc1cccc(Nc2nc(-c3ccccc3)nc3ccccc23)c1 -22.7%, CCCCN(CC)C(=O)CSc1nc2c(sc3ccccc32)c(=O)n1CCc1ccccc1 -6.93%, CCc1ccccc1NC(=O)Cn1c(=O)n(-c2ccc(C)cc2)c(=O)c2cc(OC)c(OC)cc21 -1.01%, O=C(O)/C=C/c1ccc(Cn2ccnc2)cc1 -8.34%, O=C(NO)c1ccccc1 -17.6% [at 116 µM], CC(=O)N1CCc2c(sc3c2c(=O)n(-c2ccccc2C)c(=O)n3CC(=O)Nc2ccccc2)C1 4.59%, Cn1c(=O)sc2cc(NS(=O)(=O)c3ccc(C(C)(C)C)cc3)ccc21 12.2%, Cc1c(C(=O)Nc2c(F)cccc2F)sc2ncn(Cc3ccccc3F)c(=O)c12 -28.3%, COc1ccc(C(=O)NCc2cn3ccc(C)cc3n2)cc1 -16.9%, CC(C)CC(=O)NC1CC(=O)N(c2ccc3c(c2)OCCO3)C1 (stereo not given) -12%, COc1cc2nccc(Oc3ccc(NC(=O)C4(C(=O)Nc5ccc(F)cc5)CC4)cc3)c2cc1OC -20.6%, CN(Cc1ccccc1)c1nc2c(S(=O)(=O)c3cccc(Cl)c3)nnn2c2ccsc12 -11.1%, CCCCNC(=O)CSc1nc2cc3c(cc2c(=O)n1CCCC(=O)NCc1ccc(OC)cc1)OCO3 -16.4%, COC(=O)c1ccccc1NC(=O)NCc1ccc2c(c1)CCN2C(=O)c1ccccc1 -10.1%, Cc1ccc2c(c1)N(C(=O)N1CCC(C(=O)Nc3cccc(F)c3)CC1)CCO2 -27.3%, COc1cc(Nc2nc3c(S(=O)(=O)c4ccccc4)nnn3c3ccc(Cl)cc23)cc(OC)c1 2.21%, O=c1c2oc3ccccc3c2n(Cc2ccccc2Cl)c(=O)n1Cc1ccc2c(c1)OCO2 -11.3%, Cc1ccc2c(c1)N(C(=O)CCC(=O)NCc1ccccc1F)CC(C)O2 (stereo not given) -21.1%, CCOC(=O)c1ccc2c(c1)N(Cc1cc(C)ccc1C)C(=O)c1ccccc1S2(=O)=O -11%, Cc1cc(C)cc(NC(=O)[C@H]2O[C@@H]3OC(C)(C)O[C@@H]3[C@H]3OC(C)(C)O[C@H]32)c1 5.24%, Cc1ccccc1C(=O)N1CCC(c2nc(-c3ccc(S(=O)(=O)N4CCCC4)cc3)no2)CC1 -13.5%, Clc1cccc(Nc2ncnc3c2nc2n3CCCCC2)c1 6.12%, Cc1ccsc1CN(Cc1ccco1)c1cnc(S(C)(=O)=O)nc1C(=O)Nc1ccc(Cl)cc1 -25.9%, Cn1c(=O)oc2cc(S(=O)(=O)CCC(=O)NCc3ccc(Cl)cc3)ccc21 -9.85%, CC1CCN(C(=O)CN2CC(C)Sc3ccccc32)CC1 (stereo not given) -11.6%, CCOCCn1ccc2c(OCC(=O)Nc3cc(C)cc(C)c3)cccc2c1=O -13.3%, COc1ccc(-c2cn3nc(SCC(=O)Nc4cccc(C)c4C)ccc3n2)cc1 -19.9%, Cc1cccc(C(=O)Nc2ccc(OCc3cc(=O)n4ccc(C)cc4n3)cc2)c1 -10.4%, COc1ccc(Nc2nc3ccccc3n3c(N)nnc23)cc1 28.9%, CCCCN(C)C(=O)CCC(=O)NNc1nc2ccccc2c2nc(C)nn12 -7.04%, COc1cc2c(cc1OC)C(COc1cc(C)cc(C)c1)N(C(=O)C(C)(C)C)CC2 (stereo not given) -17.2%, CCC(Nc1ccc(-c2nc(-c3ccccn3)no2)cc1[N+](=O)[O-])c1ccccc1 (stereo not given) 38%, COc1cc2c(C(=O)N(C)c3cccc(C(F)(F)F)c3)cn(CC(C)C)c(=O)c2cc1OC -10%, Cc1cccc(N2CCn3c2nc2c3c(=O)n(CCCc3ccccc3)c(=O)n2C)c1 -4.16%, Cc1ccc(C(c2sc3nc(-c4ccco4)nn3c2O)N2CCN(c3ccc(F)cc3)CC2)cc1 (stereo not given) 16%, O=C(CCCCCn1c(=O)c2sccc2n(CC(=O)Nc2ccccc2F)c1=O)NCc1ccc2c(c1)OCO2 -9.48%, CCC(C)OC(=O)/C(C#N)=C/c1ccc(-c2ccc(Br)cc2)o1 (stereo not given) 1.25%, COc1cc(CN(C(=O)COc2ccccc2)c2ccccn2)cc(OC)c1OC -18.1%, Cc1ccc(C2CC(=O)Nc3c2c(C)nn3-c2nc(C)cc(C)n2)c(C)c1 (stereo not given) 4.01%, Cc1cc2n(n1)CCCN2C(=O)Nc1ccccc1C(F)(F)F 4.63%, CCC1=C(C)CN(C(=O)NCCc2ccc(S(=O)(=O)NC(=O)NC3CCC(C)CC3)cc2)C1=O (stereo not given), O=C(Nc1ccccc1C(=O)N1CCCCC1)c1nsc2ccccc12 -3.8%, CCCCOc1cccc(C2c3c(-c4cc(C)ccc4O)n[nH]c3C(=O)N2CCOC)c1 (stereo not given) -27.8%, CCCCCOc1ccc(/C=C/C(=O)Nc2sc3c(c2C(=O)OCC)CCC3)cc1OC 1.1%, COc1ccc(NC(=O)CNC(=O)Cn2ccc3ccccc3c2=O)cc1OC -8.72%, Cc1cccc(N2CCN(CCCNc3ncnc4onc(-c5ccc(F)cc5)c34)CC2C)c1 (stereo not given) -25.3%, CN1CCN(c2cc3c(nn2)Oc2ccccc2N3C)CC1 6.65% [at 25.2 µM], CCCCc1ccc(NS(=O)(=O)c2ccc(C)c(C(=O)N3CCN(c4cccc(C)c4C)CC3)c2)cc1 -6.33%, O=C(CCNS(=O)(=O)c1ccc2c(c1)CCN2C(=O)C1CC1)Nc1ccc(OC(F)(F)F)cc1 -40.3%, CCc1ccc2oc(-c3cc(NC(=O)c4cccs4)ccc3Cl)nc2c1 -9.77%, CCC(C)NC(=O)Cn1ccc2cc(S(=O)(=O)N3CCCCCC3)ccc21 (stereo not given) -29.7%, COc1cccc2cc(C(=O)Nc3ccc(C)cc3)c(=O)oc12 77.8%, Cc1ccc(CCNC(=O)c2ccc3c(c2)N(Cc2cccc(F)c2)C(=O)c2ccccc2S3)cc1 -7.07%, Cc1ccc2c(=O)cc(C(=O)Nc3sc4c(c3C(=O)NCc3cccnc3)CCCC4)oc2c1 -8.16% [at 11.5 µM], CCOC(=O)c1ccc(NC(=O)C2=C(C)C(=O)OC23CCN(C(C)C)CC3)cc1 -31%, Cc1ccc(CN(C(=O)COc2ccc(F)cc2)C2CCS(=O)(=O)C2)o1 (stereo not given) -13.2%, CCn1cc(S(=O)(=O)c2ccccc2)c(=O)c2cc(F)c(F)cc21 -15%, CC(C)CCNC(=O)c1ccc2nc(Cc3ccccc3)oc2c1 -11.9%, CCOc1ccc(N(CC)C(=O)Cn2cnc3sc(C)c(S(=O)(=O)N4CCN(c5ncccn5)CC4)c3c2=O)cc1 -0.251%, COc1ccc(-c2cc(C(F)(F)F)nc(SCC(=O)NC(C)c3ccccc3)n2)cc1 (stereo not given) -18.3%, COC(=O)CN1C(C(=O)c2ccccc2)=C(OC(=O)c2ccccc2)c2ccccc2S1(=O)=O -10.9%, Cc1ccc(NC(=O)CCCn2nc(C)c3c(C)n(-c4ccccc4)nc3c2=O)c(Cl)c1 5.34%, Cc1ccc(NC(=O)C2CCCN(S(=O)(=O)c3cccs3)C2)c(C)c1 (stereo not given) -17.7%, COc1ccc(S(=O)(=O)N(CC(=O)Nc2ccc(Br)cc2)Cc2ccccc2)cc1 -26.7%, CCOC(=O)c1cc(NC(=O)c2ccc(F)cc2)c(=O)n2c1oc1ccc(Cl)cc12 0.346%, Cc1cc(O)c(CN2CCN(c3ccccc3)CC2)c2oc(=O)cc(C)c12 2.98%
